Measurements reported in PubChem BioAssay AID493208 (National Center for Advancing Translational Sciences (NCATS), 2011).
Screen size: about 44,000 compounds; about 340 (0.77%) were called active. About 5% were inconclusive and are not listed. Calls come from the whole dose curve; as a rule, active = well fitted inhibition curve with a large enough effect; inconclusive = small, poorly fitted or top-dose-only effect; inactive = flat fitted curve, though single readings scatter. Some of the results follow.

Experiment: Acumen qHTS Assay for Inhibitors of the mTORC1 Signaling Pathway in MEF (Tsc2-/-, p53-/-) Cells: Sytravon;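 note: plate controls were DMSO for no effect and rapamycin for full effect; nearly all actives have a fitted effect of over 50% in size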
Details: phospho-rpS6 immunofluorescence/PI, 24 h; series mostly up to 38.3 µM; activity change, negative = inhibition: at the top concentration
In short: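 Tsc2-/-, p53-/- MEFs (empty-vector stable line) in DMEM + 10% FBS were treated with compounds 24 h at 37 degree Celsius, fixed, and immunostained for phospho-rpS6 (Alexa-488) with propidium iodide counterstain. Laser-scanning cytometry gave % positive cells, normalized against 7.5 nM rapamycin and DMSO.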

Activity change, negative = inhibition, inactive:
COc1cc(NC(=O)C2CCN(c3cnccn3)CC2)cc(OC)c1 -1.24%, O=C(Cn1c(=O)n(Cc2ccco2)c(=O)c2oc3ccccc3c21)Nc1ccccc1 -14.4%, COc1ccccc1N1CCN(C(=O)C2CCN(S(=O)(=O)c3cn(C)cn3)CC2)CC1 0%, COc1ccccc1NC(=O)CN1C(=O)C(c2ccc(F)cc2)=NC12CCCCC2 -11%, CCOCCCNC(=O)c1ccc2c(=O)n(CCc3ccccc3)c(=O)[nH]c2c1 9.31%, CCc1ccc2oc(-c3cc(NC(=O)c4cc(OC)c(OC)c(OC)c4)ccc3O)nc2c1 -9.44%, CCCCc1ccc(NS(=O)(=O)c2cc3c4c(c2)CC(=O)N4CCC3)cc1 -14%, COc1cccc(N2CCN(C(=O)c3cnn(-c4ccccc4Cl)c3C3CCN(C(=O)OC(C)(C)C)CC3)CC2)c1 -0.963%, CC(=O)c1ccc(NC(=O)CSc2nc(=O)n(Cc3ccccn3)c3c2CCC3)cc1 -0.994%, O=C(CCC1N=C2c3ccccc3N=C(SCc3ccc(Cl)cc3)N2C1=O)NCc1cccs1 (stereo unspecified) -6.43%, CCC(=O)N1CCc2cc(S(=O)(=O)NC(CC(C)C)C(=O)Nc3cccc(C)c3C)ccc21 (stereo unspecified) -23.1%, COc1ccccc1C(=O)n1nc(-c2ccccc2)nc1NCc1ccc(Cl)cc1 -5.39%, O=C(CCc1ccccc1)NC1CC(=O)N(c2cccc(F)c2)C1 (stereo unspecified) -1.42%, CN(C)c1ccc(CNC(=O)CN2C(=O)C3CCCCN3c3ccc(C(=O)N4CCCC4)cc32)cc1 (stereo unspecified) -13.6%, CCC(C)NC(=O)c1cc2n(n1)CCCN(Cc1ccc(C)cc1)C2=O (stereo unspecified) 1.35%, Cc1ccc(S(=O)(=O)C(CNC(=O)C(=O)NCCc2ccc(Cl)cc2)c2ccco2)cc1 (stereo unspecified) -0.525%, Cc1ccc(N2CCN(C(=O)c3cccn4c(=O)c5ccc(Cl)cc5nc34)CC2C)cc1 (stereo unspecified) -0.424%, Cc1ccc(Nc2nc(N)nc(CSc3nc4ccccc4s3)n2)cc1 1.39%, COc1ccc(C(CNC(=O)c2oc3cc(C)c(C)cc3c2C)N2CCCCC2)cc1 (stereo unspecified) 3.08%, CCn1cc(C(=O)N2CCN(c3ccccc3)CC2)c(=O)c2cc(S(=O)(=O)N(C)C)ccc21 -3.75%, Cc1c2cnn(CC(=O)NCc3ccc(Cl)cc3)c(=O)c2c(C)n1Cc1ccc(F)cc1 2.53%, O=C(Cc1ccc(F)cc1)NCCc1csc2nc(-c3ccccc3F)nn12 5.72%, COc1ccc(CCNS(=O)(=O)c2c(C)nc3sccn3c2=O)cc1OC 2.65%, Cc1cc(NS(=O)(=O)c2ccc(NC(=O)COc3ccccc3Br)cc2)no1 -0.102%, Cc1ccccc1Nc1nn2c(=O)c3ccc(C(=O)NCc4cccs4)cc3nc2s1 -3.04%, Cc1cc(C)cc(NC(=O)CSc2ccc(-c3cccs3)nn2)c1 -3.79%
